Data reported in PubChem BioAssay AID624417 (National Center for Advancing Translational Sciences (NCATS), 2012).
Hit rate of the full screen: of about 410,000 compounds, about 6,400 (1.6%) were called active. The inconclusive results got no clear call from the source; some entries with a clear call stand among them for comparison. Calls come from the whole dose curve; as a rule, active = well fitted inhibition curve with a large enough effect; inconclusive = small, poorly fitted or top-dose-only effect; inactive = no such curve, though single readings can be large or run the other way. A potency beside an inconclusive call is a rough fit, not a confirmed value.

Target: Glucagon-like peptide 1 receptor (Homo sapiens) (UniProt P43220)
Experiment: qHTS of GLP-1 Receptor Inverse Agonists (Inhibition Mode); note: nearly all actives have a fitted effect of over 55% in size
Conditions: HEK293 GLP-1R CRE-luciferase, luminescence, 24 h, GLP-1R form is constitutively active; activity change, negative = inhibition: at 38.3 µM (top of the series) unless noted
Summary of the method: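 Stable HEK293 clone (constitutively active GLP-1R + cAMP-response luciferase); 200 cells/uL plated, 12 h pre-culture, compound 24 hr, 37 deg C/5% CO2; detection reagent 12 min RT; luminescence.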
% is set by controls: 0 for no effect and ±100 for the full control effect; potency is the fitted concentration of half-maximal effect; tags give direction and shape of the fitted curve.

Sequence of UniProt P43220 (P43220 whole entry, looked up): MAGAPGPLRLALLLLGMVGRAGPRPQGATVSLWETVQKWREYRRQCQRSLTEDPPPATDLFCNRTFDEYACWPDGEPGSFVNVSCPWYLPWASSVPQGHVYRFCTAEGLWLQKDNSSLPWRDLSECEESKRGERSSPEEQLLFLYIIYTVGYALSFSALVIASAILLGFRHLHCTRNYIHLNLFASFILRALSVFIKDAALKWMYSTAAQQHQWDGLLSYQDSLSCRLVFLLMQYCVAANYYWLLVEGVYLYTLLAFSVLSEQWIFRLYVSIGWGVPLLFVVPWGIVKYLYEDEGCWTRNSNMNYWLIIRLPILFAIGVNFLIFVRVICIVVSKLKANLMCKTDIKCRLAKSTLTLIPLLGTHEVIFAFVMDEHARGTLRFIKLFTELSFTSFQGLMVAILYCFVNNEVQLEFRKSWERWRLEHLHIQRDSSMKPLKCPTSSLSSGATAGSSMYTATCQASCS

Potency, inconclusive:
COc1ccc2nc3cc(Cl)ccc3c(Nc3ccc(O)c(CN4CCN(C)CC4)c3)c2c1 28.2 µM [inhibitor, single point]
CC1=CC(C)(C)NC(=S)N1c1ccc(C)cc1C 8.91 µM [inhibitor, partial curve, poor fit]
O=C(Cc1ccccc1[N+](=O)[O-])NCc1ccc(Cl)cc1 17.8 µM [inhibitor, single point]
Cc1ccc(C(O)c2ncc(-c3ccc4ccccc4c3)[nH]2)cc1 (stereo not drawn) 2 µM [inhibitor, full curve, poor fit]
C#Cc1ccc(CN2CCCC(C(=O)Nc3ccccc3Oc3cccnc3)C2)cc1 (stereo not drawn) 14.1 µM [inhibitor, partial curve, poor fit]
CCOc1ccc(CN2C(=O)c3ccccc3Sc3ccc(C(=O)NCc4ccco4)cc32)cc1 10 µM [inhibitor, partial curve]
COc1ccc(Cl)cc1NC(=O)CSc1cn(CC(=O)N2CCCCC2)c2ccccc12 28.2 µM [inhibitor, single point]
CCn1c(SCC(=O)c2ccc3ccccc3c2)nnc1-c1ccco1 8.91 µM [inhibitor, partial curve, poor fit]
CCN(CC)c1ccc(CNCCCSc2nnnn2C)cc1 11.2 µM [inhibitor, partial curve, poor fit]
O=C1CC2(CCN(C(=O)c3ccccc3Cl)CC2)Oc2ccccc21 28.2 µM [inhibitor, single point]
COc1ccc(CNC(=O)c2cc(Nc3ccccc3C)nc3ccccc23)cc1 28.2 µM [inhibitor, single point]
O=C(c1cccc(N2C(=O)C3C4C=CC(C4)C3C2=O)c1)N1CCN(c2ccc(F)cc2)CC1 (stereo not drawn) 28.2 µM [inhibitor, single point]
Cc1ccccc1-c1cc2nc(NCc3ccccc3)n(C)c(=O)c2s1 28.2 µM [inhibitor, single point]
C=CCn1c(NC(=O)c2ccccc2)nc2ccccc21 11.2 µM [inhibitor, partial curve, poor fit]
Cc1ccc(NC(=O)C2CCN(S(=O)(=O)c3ccc4c(c3)CC(C)N4C(=O)C3CCC3)CC2)nc1 (stereo not drawn) 14.1 µM [inhibitor, single point]
CCNc1nc(Oc2ccc(C#N)cc2)cc(C(F)(F)F)n1 8.91 µM [inhibitor, single point]
C(=N\Nc1nc2ccccc2[nH]1)/c1ccc2c(c1)OCCO2 28.2 µM [inhibitor, single point]
Cc1cc(C2=CC(=O)C[C@H](c3ccc(F)cc3)C2)ccc1F 12.6 µM [inhibitor, partial curve, poor fit]
C=CCN1c2ccccc2[C@]23C[C@@H](C(=O)OC)N(C(=O)CC(C)C)C2=NC(C(=O)OC)=C(C(=O)OC)[C@H]13 28.2 µM [inhibitor, single point]
CN(c1ccc(C(=O)NCc2cccnc2)cc1)S(=O)(=O)c1ccc(Cl)cc1 2 µM [inhibitor, partial curve, poor fit]
CC1CCN(C2(O)C(=O)Nc3ccc(Br)cc32)CC1 (stereo not drawn) 11.2 µM [inhibitor, partial curve]
O=C(Nc1nc(-c2cccs2)c(-c2cccs2)s1)C1CCCC1 5.01 µM [inhibitor, full curve]
Cc1ccccc1-c1nc(CN2CCC(C(=O)NCCCN3CC(C)CC(C)C3)CC2)c(C)o1 (stereo not drawn) 2.51 µM [inhibitor, full curve, poor fit]
Fc1ccc(Nc2ncnc3sc4c(c23)CCC4)cc1 7.94 µM [inhibitor, partial curve, poor fit]
Cc1cc(C)c2c(NC(=O)CCl)nn(C)c2n1 17.8 µM [inhibitor, single point]
CN(C)C1(CNC(=O)Nc2ccccc2)CCCCC1 2.51 µM [inhibitor, partial curve]
OC(CNC1CCCCC1)CNC1CCCCC1 10 µM [inhibitor, partial curve, poor fit]
CCN(c1ccccc1)S(=O)(=O)c1nnc(NC(=O)c2ccccc2OC)s1 15.8 µM [inhibitor, single point]
CCOCCc1nn2c(=O)cc(COC(=O)c3ccc(NC(=O)C4CCCCC4)cc3)nc2s1 7.94 µM [inhibitor, partial curve]
O=C(NCC1CCCO1)C(c1cccs1)N(Cc1ccccc1)C(=O)c1ccc(-c2ccccc2)[nH]1 (stereo not drawn) 5.01 µM [inhibitor, full curve, poor fit]
CCN(CC)S(=O)(=O)c1ccc(C)c(NC(=S)N2CCN(Cc3ccc4c(c3)OCO4)CC2)c1 10 µM [inhibitor, partial curve, poor fit]

Activity change, negative = inhibition, inactive:
N#Cc1ccc(-c2ccco2)nc1SCc1ccccc1 -14.8%
COc1ccc(Cl)cc1NC(=O)Nc1ccccc1SC -17.7%
COc1ccc(C2=CC(=O)OC3(CCCCC3)O2)cc1 -25.1%
CCN(C(=O)c1ccc(NC(=O)C2CCCCC2C(=O)O)cc1)c1ccccc1 (stereo not drawn) -2.97%
CC1CCCC(NC(=S)NC(=O)c2cncc(Br)c2)C1C (stereo not drawn) -13.1%
COc1ccc(N=C2C(=O)N3c4c(cccc42)C(C)=CC3(C)C)cc1 -11.5%
CCN(CC)C(=O)NC1CC2CCCC(C1)N2Cc1ccccc1 (stereo not drawn) 6.83%
CCCCN(C)CCCNC(=O)C1CCN(S(=O)(=O)CCC)CC1 4.29%
O=C(Nc1ccccc1C(F)(F)F)c1ncoc1-c1ccco1 8.01%
CCN1C(=O)CC(N2CCN(c3ccc(Cl)cc3)CC2)C1=O (stereo not drawn) 0.243%
CCOC(=O)c1ccc(S(=O)(=O)N2CCN(CCC#N)CC2)cc1 10.4%
CCCN(C(=O)c1cn(C)c(=O)c2cc(OC)c(OC)cc12)c1ccc(CC)cc1 22.1%
